About 2,200 (0.71%) of roughly 310,000 compounds showed an effect of 50% or more. The effect is printed as a negative number. The list shows a part of the results.
The compounds below were run against human ether-à-go-go-related gene (hERG) potassium channel (human, UniProt Q12809) (assay: primary screen, population patch clamp on CHO cells stably expressing hERG).
Chain of human ether-à-go-go-related gene (hERG) potassium channel (Q12809 whole entry, looked up): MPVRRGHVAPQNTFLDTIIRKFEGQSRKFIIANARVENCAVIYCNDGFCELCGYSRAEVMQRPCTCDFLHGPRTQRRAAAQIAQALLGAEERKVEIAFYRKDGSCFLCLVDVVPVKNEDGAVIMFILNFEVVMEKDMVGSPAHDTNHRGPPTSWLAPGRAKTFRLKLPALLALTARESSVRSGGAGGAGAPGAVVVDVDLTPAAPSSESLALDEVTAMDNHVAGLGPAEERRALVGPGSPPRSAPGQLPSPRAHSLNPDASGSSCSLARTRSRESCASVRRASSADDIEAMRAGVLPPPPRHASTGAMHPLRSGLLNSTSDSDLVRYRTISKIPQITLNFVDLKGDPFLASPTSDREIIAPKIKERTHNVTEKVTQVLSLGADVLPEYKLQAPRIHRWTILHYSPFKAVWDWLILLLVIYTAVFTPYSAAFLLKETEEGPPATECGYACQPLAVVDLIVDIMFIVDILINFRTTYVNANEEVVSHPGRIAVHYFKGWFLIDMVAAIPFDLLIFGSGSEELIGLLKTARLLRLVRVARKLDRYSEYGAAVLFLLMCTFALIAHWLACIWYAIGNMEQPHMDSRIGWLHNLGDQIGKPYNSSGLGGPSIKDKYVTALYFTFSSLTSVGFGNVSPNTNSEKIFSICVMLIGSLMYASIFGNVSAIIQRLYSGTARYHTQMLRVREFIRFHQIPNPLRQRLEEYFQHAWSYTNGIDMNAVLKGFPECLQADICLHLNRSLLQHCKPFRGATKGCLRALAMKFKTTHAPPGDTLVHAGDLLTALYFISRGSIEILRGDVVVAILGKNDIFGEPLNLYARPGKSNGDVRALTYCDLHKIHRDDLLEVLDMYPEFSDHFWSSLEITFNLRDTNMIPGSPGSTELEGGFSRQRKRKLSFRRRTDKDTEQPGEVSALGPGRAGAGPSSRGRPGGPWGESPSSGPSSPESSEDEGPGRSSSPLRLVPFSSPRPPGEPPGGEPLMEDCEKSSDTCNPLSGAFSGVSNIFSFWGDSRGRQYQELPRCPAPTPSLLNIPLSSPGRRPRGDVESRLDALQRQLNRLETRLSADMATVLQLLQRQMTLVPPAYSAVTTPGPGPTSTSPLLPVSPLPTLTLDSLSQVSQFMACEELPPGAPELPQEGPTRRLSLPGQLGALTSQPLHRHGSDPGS

| SMILES | hERG current change (%, negative = inhibition) at 1uM [%] |
| --- | --- |
| CC1=C[C@H]2OC(=O)[C@@H](C)[C@H]2C[C@@H]2[C@H]1C[C@@H](O)[C@@]2(C)O | 5.41 |
| COc1cccc(CC(=O)N2CCC(CCC(=O)Nc3cccc(OC)c3)CC2)c1 | -0.988 |
| Cc1c(NC(=O)COC(=O)c2cc(-c3ccc(-c4ccccc4)cc3)nc3ccccc23)c(=O)n(-c2ccccc2)n1C | 15.3 |
| COc1ccc(CC(=O)N(c2ccccc2)c2nc(C)cs2)cc1 | 1.42 |
| COC(=O)c1cc2sccc2n1Cc1ccc(C)cc1 | 16.4 |
| COc1ccc(-c2nc(SCC(=O)NCc3ccco3)c(-c3ccccc3)[nH]2)cc1OC | 4.9 |
| CCN(C(=O)COC(=O)c1ccc(C)c(S(=O)(=O)N2CCCCC2)c1)C1CCS(=O)(=O)C1 (centres unmarked) | -20 |
| CCOC(=O)c1nnn(CC(=O)Nc2ccccc2OC)c1C(=O)OCC | 11.5 |
| CCC(C)C(NC(=O)OCc1ccccc1)C(=O)NCC(c1ccccc1)N(C)C (centres unmarked) | 8.15 |
| CC(=O)N1CCN(c2ccc([N+](=O)[O-])cc2C#N)CC1 | -47.9 |
| CN(C)C(=O)NC(O)C(Cl)Cl (centres unmarked) | 1.65 |
| CC(NC(=O)c1ccco1)C(=O)N(C)Cc1ccc(C(F)(F)F)cc1 (centres unmarked) | 16 |
| CC(C)CC(=O)Nc1cccc(-c2nc3ncccc3o2)c1 | 2.55 |
| CCn1cc(/C=N/NS(=O)(=O)c2ccc(C)cc2)c(C)n1 | 4.79 |
| CCO[C@H]1OC(C(=O)N2CCCCCCC2)=C[C@@H](C)[C@@H]1CCCO | 12.9 |
| CCCn1c(SCC(=O)N2CCN(S(=O)(=O)c3ccc(Cl)cc3)CC2)n[nH]c1=O | 12.7 |
| CC1CC(C)CN(C(=O)CCCNC(=O)c2ccc(Cl)cc2)C1 (centres unmarked) | -1.14 |
| Cc1ccc(NC(=S)N2CCC(NC(=O)c3ccccc3)CC2)cc1 | -4.03 |
| CCN(CC)CCn1c(NS(=O)(=O)c2ccc(Cl)cc2)nc2ccccc21.Cl | -69 |
| O=c1c2ccccc2nc(-c2ccoc2)n1-c1ccccc1 | 7.97 |
| Cc1ccc(C)c2c1cc(C)c1nnc(SCC(=O)Nc3cccc(C(=O)O)c3)n12 | 11.2 |
| Cc1cc(C)nc(NS(=O)(=O)c2ccc(N3C(=O)C4CCCCC4C3=O)cc2)n1 (centres unmarked) | 8.84 |

| SMILES | hERG current change (%, negative = inhibition) at 1uM [%] |
| --- | --- |
| CCCCCCSc1nsc(N)n1 | 4.28 |
| COc1ccc(S(=O)(=O)N2CCCCC2)cc1NC(=O)CSc1nccn1C | 11.7 |
| CC(Nc1ccc(Cl)cc1)C(=O)NN (centres unmarked) | 15.6 |
| CCCCCCNCCn1cnc2c(N)ncnc21 | -9.13 |
| CNc1oc(-c2ccc(Cl)cc2)nc1C#N | -1.41 |
| CN(Cc1ccccc1F)C(=O)c1ccc(NS(=O)(=O)c2ccc3[nH]c(=O)[nH]c3c2)cc1 | 10.8 |
| OC[C@H]1O[C@H](OCc2ccccc2)[C@H](O[C@@H]2OC[C@@H](O)[C@H](O)[C@H]2O)[C@@H](O)[C@@H]1O | 15.9 |
| COc1ccc(NC(=O)C23CCC(C)(C(=O)C2)C3(C)C)cc1 (centres unmarked) | 9.9 |
| Cc1cc(C(=O)Nc2ccc(CC(=O)O)cc2)c(C)o1 | 14.6 |
| CCC(c1nnc(SCC(=O)N(C)c2ccccc2)n1Cc1ccccc1)N(C)C (centres unmarked) | 13 |
| CCN(CC)S(=O)(=O)c1cc(C)ccc1NC(=S)Nc1cccnc1 | 3.41 |
| Cc1ccc(C=C2C(=O)c3ccccc3C2=O)o1 | 7.94 |
| CC(C)(C)c1csc(NC(=O)c2cccnc2)n1 | 19.5 |
| COc1ccc(/C=C/C(=O)NCC(=O)N/N=C(/C)c2ccc(Cl)cc2)cc1 | 14.5 |
| COc1ccc(S(=O)(=O)N(CCc2ccccc2)CC(=O)O)cc1 | 11 |
| Cc1ccc(C(=O)NCCc2nnc3ccc(SCC(=O)NCc4ccc(F)cc4)nn23)cc1 | 7.81 |
| O=C(Nc1cccc(F)c1)N1C2CCC1CC(O)(c1cccnc1)C2 (centres unmarked) | 19.1 |
| CCO[C@H]1OC(C(=O)NCc2nc3ccccc3[nH]2)=C[C@@H](c2csc3ccccc23)[C@@H]1CCCO | 7.88 |
| COc1ccc(C(=O)NCc2nnc(SC)n2Cc2ccccc2)cc1 | 2.88 |
| COc1ccc(OC)c(C(C(=O)NC2CCCCC2)N(Cc2ccco2)C(=O)c2ccccn2)c1 (centres unmarked) | 11 |
| C=CCn1c(=S)[nH]c2ccccc2c1=O | 9.51 |
| Cc1c(NC(=S)NC(=O)CSc2ccc(Cl)cc2)cccc1C(=O)O | 1.51 |
